Experimental findings from publication PMC4336329 (PLoS ONE, 2015) are described below.

In all, about 310,000 compounds went through this assay and about 14,000 (4.5%) showed an effect of 50% or more. The effect is printed as a negative number. This is one part of the list.
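Note: peak tail current of the secondary pulse compared with the same well before compound.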

Chain of human ether-à-go-go-related gene (hERG) potassium channel (Q12809 whole entry, looked up): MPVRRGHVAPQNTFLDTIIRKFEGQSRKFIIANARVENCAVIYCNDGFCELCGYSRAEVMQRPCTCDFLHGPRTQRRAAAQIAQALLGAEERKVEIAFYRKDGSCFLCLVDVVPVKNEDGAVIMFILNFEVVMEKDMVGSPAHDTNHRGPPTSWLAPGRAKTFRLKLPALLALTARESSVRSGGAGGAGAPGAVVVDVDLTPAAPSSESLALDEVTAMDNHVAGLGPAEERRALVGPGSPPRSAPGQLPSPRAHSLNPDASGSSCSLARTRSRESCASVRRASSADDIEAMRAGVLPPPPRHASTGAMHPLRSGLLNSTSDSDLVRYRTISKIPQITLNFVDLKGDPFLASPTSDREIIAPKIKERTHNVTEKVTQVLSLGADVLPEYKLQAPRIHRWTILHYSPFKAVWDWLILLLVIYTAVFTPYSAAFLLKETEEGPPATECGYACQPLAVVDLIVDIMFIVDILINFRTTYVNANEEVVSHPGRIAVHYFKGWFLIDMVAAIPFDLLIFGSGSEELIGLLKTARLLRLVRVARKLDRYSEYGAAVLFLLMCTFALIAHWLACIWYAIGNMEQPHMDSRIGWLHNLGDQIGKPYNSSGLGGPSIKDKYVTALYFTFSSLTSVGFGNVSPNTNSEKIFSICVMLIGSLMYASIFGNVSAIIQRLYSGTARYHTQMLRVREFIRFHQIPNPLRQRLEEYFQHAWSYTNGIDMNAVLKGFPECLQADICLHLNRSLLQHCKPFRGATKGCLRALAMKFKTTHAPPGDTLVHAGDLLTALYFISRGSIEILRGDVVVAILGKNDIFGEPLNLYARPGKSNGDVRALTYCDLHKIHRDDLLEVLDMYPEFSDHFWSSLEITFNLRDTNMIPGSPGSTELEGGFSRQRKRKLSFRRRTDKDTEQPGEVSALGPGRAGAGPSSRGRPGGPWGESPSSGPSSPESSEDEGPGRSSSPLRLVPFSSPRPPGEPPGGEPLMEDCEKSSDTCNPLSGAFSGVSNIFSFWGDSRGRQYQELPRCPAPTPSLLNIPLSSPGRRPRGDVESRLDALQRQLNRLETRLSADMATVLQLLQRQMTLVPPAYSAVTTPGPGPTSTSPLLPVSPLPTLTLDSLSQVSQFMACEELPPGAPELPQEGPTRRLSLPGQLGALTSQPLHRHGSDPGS

This test concerns the target human ether-à-go-go-related gene (hERG) potassium channel (human, UniProt Q12809). Briefly: primary screen, population patch clamp on CHO cells stably expressing hERG.
Consider `Cc1ccc2nc(NCCO)nc(-c3ccccc3)c2c1`, for which the “hERG current change (%, negative = inhibition) at 10uM” value is listed as -16.6%.
For `O=C(Nc1ccc2c(c1)C(=O)NC2=O)c1ccccc1Cl`, the “hERG current change (%, negative = inhibition) at 10uM” value is given as -0.898%.
Turning to `CSc1nc2ccccc2n1CC(=O)Nc1ccc(C)c(C)c1`, the “hERG current change (%, negative = inhibition) at 10uM” value was 15%.
Regarding `CC[C@@H]1[C@H]2CCCC(=O)N3CC[C@@H](C[C@H]1O)[C@@H]23`, the “hERG current change (%, negative = inhibition) at 10uM” value is recorded as 16.7%.
Take `Cc1nnc2n(c1=O)N=C(c1ccc(Cl)cc1)CS2`: the “hERG current change (%, negative = inhibition) at 10uM” value is recorded as 6.25%.
Regarding `Cn1c(CNC(=O)c2ccccc2F)nnc1SCc1ccc(F)cc1`, the “hERG current change (%, negative = inhibition) at 10uM” value is -15.3%.
As to `CC(=O)c1nn(-c2cccc(Br)c2)cc1C(=O)c1ccccc1`, the “hERG current change (%, negative = inhibition) at 10uM” value was 23.3%.
The value for `CCN(CC(=O)NC1CCS(=O)(=O)C1)c1ccc([N+](=O)[O-])cc1C#N` (stereo not shown) was -1.69%; that for `Cc1ccnc2nc(C(=O)Nc3ccc(S(=O)(=O)N4CCCC4)cc3)nn12` was 11.5%; that for `C/C(=N\Nc1ccc([N+](=O)[O-])cc1[N+](=O)[O-])C(C)C(C)C` (stereo not shown) was -11.8%.
`Cc1cccc(CN2CCN(Cc3cnn(-c4ccccc4F)c3)CC2CCO)n1` (stereo not shown): the “hERG current change (%, negative = inhibition) at 10uM” value is on record as -11.3%.
For `O=C(Nc1ccc([N+](=O)[O-])cc1)Nn1cnnc1`, the “hERG current change (%, negative = inhibition) at 10uM” value came out at 15.2%.
Regarding `COc1nccnc1NS(=O)(=O)c1ccc(NCc2ccccc2O)cc1`, the “hERG current change (%, negative = inhibition) at 10uM” value is listed as 7.4%.
Consider `O=C(Nc1ccc(N2CCOCC2)cc1)c1cc2c(s1)CCCCC2`, for which the “hERG current change (%, negative = inhibition) at 10uM” value was 8.76%.
The value for `C[C@@]12C(=O)N(CCO)CC(=O)N1[C@H](/C=C/c1ccccc1)[C@@H]1C(=O)N(c3ccccc3)C(=O)[C@@H]12` was -6.44%; that for `O=C(c1ccc(Cl)s1)N1CCN(c2nc3ccccc3s2)CC1` was -9.88%; that for `Cc1c(C#N)c(O)[nH]c(=O)c1N=Nc1ccc(Cl)c(C(=O)O)c1` was 16.2%.
On to `CCCCn1c(N)c(N(CC(C)C)C(=O)c2ccncc2)c(=O)[nH]c1=O`, for which the “hERG current change (%, negative = inhibition) at 10uM” value turned out to be 16.5%.
In the case of `Cc1noc(C)c1S(=O)(=O)Nc1ccc(C(=O)NC2CCCCCC2)cc1`, the “hERG current change (%, negative = inhibition) at 10uM” value worked out at 3.27%.
As for `CC(=O)Nc1nc(C)c(C(C)=O)s1`, the figure is 19.7%.
As to `O=S(=O)(c1ccc(N2CCCC2c2nc3ccccc3s2)nc1)N1CCOCC1` (stereo not shown), the “hERG current change (%, negative = inhibition) at 10uM” value is recorded as -26.5%.
As to `O=c1[nH]c2ccc(NC(=S)NCc3ccccc3)cc2[nH]1`, the “hERG current change (%, negative = inhibition) at 10uM” value is given as 14.4%.
For `CCOCCCNC(=O)c1ccc(OC)c(OC2CCN(C(C)C)CC2)c1`, the “hERG current change (%, negative = inhibition) at 10uM” value is listed as 10.7%.
Take `Cn1c(-c2cccc(OCc3ccccc3)c2)nc2c1c(=O)[nH]c(=O)n2Cc1ccccc1`: the “hERG current change (%, negative = inhibition) at 10uM” value came to 4.94%.
Turning to `N#CCC(=O)Nc1ccc(C(=O)NCC2(N3CCOCC3)CCCCC2)cc1`, the “hERG current change (%, negative = inhibition) at 10uM” value came to 7.48%.
Regarding `Cc1cc(NC(=O)COC(=O)c2c(C)nn(Cc3ccccc3Cl)c2C)no1`, the “hERG current change (%, negative = inhibition) at 10uM” value was determined as 1.07%.
Take `CCCOC(=O)c1sc2nc3c(cc2c1N)C(=O)CCC3`: the “hERG current change (%, negative = inhibition) at 10uM” value stood at 10.6%.
Regarding `CN1C(=O)N(C)C2(C)CC1(C)N(C)C(=O)N2C`, the “hERG current change (%, negative = inhibition) at 10uM” value is recorded as 25.7%.
On to `O=C(NCc1cccnc1)c1cccc2c1C(=O)N(C1CCCCC1)C2`, for which the “hERG current change (%, negative = inhibition) at 10uM” value is -15.3%.
With `C/C(=N\N=C(/N)c1nonc1N)c1ccc2c(c1)OCO2`, the “hERG current change (%, negative = inhibition) at 10uM” value stood at 18.8%.
The value for `COC(=O)C1=NNCC12CC(=O)N(c1ccc(Br)cc1)C2=O` (stereo not shown) was 0.162%; that for `CC(C)(CO)NCc1c(OCc2ccc(Cl)cc2)ccc2ccccc12.Cl` was -75.6%; that for `CCCN1CCN(C(=O)c2nn(-c3ccc(OC)cc3)c(=O)c3c2c2ccccc2n3C)CC1` was -3.71%.
`Cc1ccn2c(C(=O)N/N=C/c3ccc(CNC(=O)C(=O)Nc4ccc(C)c(C)c4)o3)c(C)nc2c1`: the “hERG current change (%, negative = inhibition) at 10uM” value is -57%.
As for `Cl.N=c1sccn1CC(=O)Nc1cccc(S(N)(=O)=O)c1`, the figure is 12.5%; as for `COc1cccc(C(=O)NCCS(=O)(=O)NCCCc2ccccc2)c1`, -30.2%.
As for `CC(C)C1C(=O)CC(c2ccccc2)NC1c1ccccc1` (stereo not shown), the “hERG current change (%, negative = inhibition) at 10uM” value is reported as 14.8%.
Consider `Clc1ccc2nc(-c3ccc(Br)s3)cn2c1`, for which the “hERG current change (%, negative = inhibition) at 10uM” value was 8.14%.
Regarding `Cn1c2ccccc2c2ncn(Cc3ccco3)c(=O)c21`, the “hERG current change (%, negative = inhibition) at 10uM” value came out at 0.125%.
With `Cc1ccc(CSc2nsc(C)c2C#N)cc1`, the “hERG current change (%, negative = inhibition) at 10uM” value is on record as 19.9%.
Regarding `O=C(CCCNC(=O)/C(=C/c1ccc(Br)cc1)NC(=O)c1ccccc1)OCc1ccccc1`, the “hERG current change (%, negative = inhibition) at 10uM” value is on record as -38.8%.
As for `COc1ccc(CCN(Cc2cc3cc(C)c(C)cc3nc2Cl)C(=O)C2CC2)cc1`, the figure is 19.8%; as for `Cc1cc(C)cc(C(=O)NC(CC(N)=O)c2ccc(NC3CCCCC3)c([N+](=O)[O-])c2)c1` (stereo not shown), 1.32%.
